In publication PMC12820563:
This is one part of the list. The list includes weakly bound sequences.

Target: T1, MBP-FoxP3dN (UniProt Q99JB6)
T1 sequence: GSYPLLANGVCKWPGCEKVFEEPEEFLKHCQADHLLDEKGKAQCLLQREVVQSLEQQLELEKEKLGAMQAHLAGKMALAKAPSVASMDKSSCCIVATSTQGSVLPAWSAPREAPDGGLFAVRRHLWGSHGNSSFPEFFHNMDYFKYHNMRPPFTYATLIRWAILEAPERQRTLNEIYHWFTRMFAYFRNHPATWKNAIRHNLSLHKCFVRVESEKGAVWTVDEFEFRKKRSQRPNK
Test: PD-seq (MBP pull-down with sequencing)
Details: 20 mM Tris-HCl pH 7.5, 100 mM NaCl, 1.5 mM MgCl2, 0.4 uM protein, 0.1 uM dsDNA library, 30 min, room temperature, amylose pull-down; high values mean tight binding; double strand, one strand shown

| Sequence | binding signal (RPM ratio (pull-down/input)) |
| --- | --- |
| GATGATTGTTCTCCCAGCTGATGAATTGCTGCGGTCGAGTAAACAAATTTTCCTAATCTTTCTGTTCAAGCGCCATCTAC | 0.598 |
| GATGATTGTTCTCCCAGCTGATGAATTTCGCCAGTCGAGTAAACAAATTTTCCTAATCTTTCTGTTCAAGCGCCATCTAC | 2.59 |
| GATGATTGTTCTCCCAGCTGATGAATTTCCCGCTTCGAGTAAACAAATTTTCCTAATCTTTCTGTTCAAGCGCCATCTAC | 0.261 |
| GATGATTGTTCTCCCAGCTGATGAATTTCGTGTCTCGAGTAAACAAATTTTCCTAATCTTTCTGTTCAAGCGCCATCTAC | 1.6 |
| GATGATTGTTCTCCCAGCTGATGAATTGAACATTTCGAGTAAACAAATTTTCCTAATCTTTCTGTTCAAGCGCCATCTAC | 0.388 |
| GATGATTGTTCTCCCAGCTGATGAATTGAGAACGTCGAGTAAACAAATTTTCCTAATCTTTCTGTTCAAGCGCCATCTAC | 0.267 |
| GATGATTGTTCTCCCAGCTGATGAATTGGAAGCCTCGAGTAAACAAATTTTCCTAATCTTTCTGTTCAAGCGCCATCTAC | 0.359 |
| GATGATTGTTCTCCCAGCTGATGAATTTATACCATCGAGTAAACAAATTTTCCTAATCTTTCTGTTCAAGCGCCATCTAC | 1.12 |
| GATGATTGTTCTCCCAGCTGATGAATTGGGAACGTCGAGTAAACAAATTTTCCTAATCTTTCTGTTCAAGCGCCATCTAC | 0.31 |
| GATGATTGTTCTCCCAGCTGATGAATTCATGAATTCGAGTAAACAAATTTTCCTAATCTTTCTGTTCAAGCGCCATCTAC | 0.676 |
| GATGATTGTTCTCCCAGCTGATGAATTACATGGCTCGAGTAAACAAATTTTCCTAATCTTTCTGTTCAAGCGCCATCTAC | 0.568 |
| GATGATTGTTCTCCCAGCTGATGAATTCTCGCATTCGAGTAAACAAATTTTCCTAATCTTTCTGTTCAAGCGCCATCTAC | 5.82 |
| GATGATTGTTCTCCCAGCTGATGAATTTTTTGGCTCGAGTAAACAAATTTTCCTAATCTTTCTGTTCAAGCGCCATCTAC | 0.204 |
| GATGATTGTTCTCCCAGCTGATGAATTAGGGGATTCGAGTAAACAAATTTTCCTAATCTTTCTGTTCAAGCGCCATCTAC | 0.431 |
| GATGATTGTTCTCCCAGCTGATGAATTGAACGTGTCGAGTAAACAAATTTTCCTAATCTTTCTGTTCAAGCGCCATCTAC | 0.487 |
| GATGATTGTTCTCCCAGCTGATGAATTCATTGAATCGAGTAAACAAATTTTCCTAATCTTTCTGTTCAAGCGCCATCTAC | 0.267 |
| GATGATTGTTCTCCCAGCTGATGAATTCACTTTATCGAGTAAACAAATTTTCCTAATCTTTCTGTTCAAGCGCCATCTAC | 0.552 |
| GATGATTGTTCTCCCAGCTGATGAATTTTGGTCATCGAGTAAACAAATTTTCCTAATCTTTCTGTTCAAGCGCCATCTAC | 0.613 |
